# Measurements taken from PubChem BioAssay AID1030 (National Center for Advancing Translational Sciences (NCATS), 2008).
# Hit rate of the full screen: of about 220,000 compounds, about 16,000 (7.3%) were called active. This list was built around the results that the source calls inconclusive (neither active nor inactive); the mix of calls is not that of the screen. Calls follow the shape of the dose curve; as a rule, active = well fitted inhibition curve with a large enough effect (not every such curve was filed as active); inconclusive = small, poorly fitted or top-dose-only effect, or another doubt; inactive = no such curve, though single readings can be large or run the other way. No potency is given beside an inconclusive call; the fits are too rough.
# Target: Aldehyde dehydrogenase 1A1 (Homo sapiens) (UniProt P00352)
# Assay: qHTS Assay for Inhibitors of Aldehyde Dehydrogenase 1 (ALDH1A1);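 as to activity, negative = inhibition: plate controls were no enzyme wells and a reference inhibitor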
# Details: Purified ALDH1A1, NADH fluorescence, propionaldehyde substrate; series mostly up to 75.3 µM
# Potency is read from the fitted curve at half-maximal effect; tags tell the direction and shape of the fitted curve.
# Chain of UniProt P00352 (P00352 whole entry, looked up): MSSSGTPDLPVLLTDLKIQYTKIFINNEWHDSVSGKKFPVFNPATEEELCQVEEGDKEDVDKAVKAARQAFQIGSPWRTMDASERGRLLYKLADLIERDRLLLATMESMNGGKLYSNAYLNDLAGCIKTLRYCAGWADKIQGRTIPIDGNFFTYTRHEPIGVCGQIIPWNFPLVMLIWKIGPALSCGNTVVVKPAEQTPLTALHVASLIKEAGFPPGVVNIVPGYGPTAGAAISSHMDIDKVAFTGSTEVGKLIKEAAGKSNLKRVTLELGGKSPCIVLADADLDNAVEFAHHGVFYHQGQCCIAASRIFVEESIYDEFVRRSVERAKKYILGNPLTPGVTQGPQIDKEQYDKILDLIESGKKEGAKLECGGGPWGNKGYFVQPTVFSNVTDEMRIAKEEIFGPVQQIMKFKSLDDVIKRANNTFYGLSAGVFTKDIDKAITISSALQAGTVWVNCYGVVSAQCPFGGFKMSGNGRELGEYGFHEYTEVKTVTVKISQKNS
SMILES,Potency,"activity, negative = inhibition"
Cc1ccc(-n2nc3c(c2NC(=O)CCC2CCCCC2)CS(=O)C3)cc1 (centres undefined),"inconclusive [inhibitor, partial curve]",–
O=C(CCC(=O)c1ccccc1)NCc1ccccc1,inactive,–
O=C(COC(=O)c1ccc(O)cc1)Nc1ncc(Cl)cc1Cl,active: 28.2 µM,–
CC1CC[C@@]2(C(=O)O)CCC3(C)C(=CCC4[C@]5(C)CC(O)C(O)[C@](C)(CO)C5C(O)C[C@@]43C)C2C1C (some centres undefined),inactive,–
CCOC(=O)N1CCc2c(sc3c2c(=O)n(Cc2ccccc2)c(=O)n3Cc2ccccc2F)C1,"inconclusive [inhibitor, partial curve]",–
NNC(=O)c1ccc(COCC(F)(F)F)cc1,"inconclusive [inhibitor, partial curve]",–
O=C1/C(=C/c2cccnc2)SC(=S)N1c1ccccc1,"inconclusive [inhibitor, partial curve]",–
O=C(O)C1CCCCN1S(=O)(=O)c1ccc(Cl)s1 (centres undefined),active: 15.8 µM,–
O=C1/C(=C\c2ccc(Br)o2)SC(=Nc2ccccc2)N1c1ccccc1,"inconclusive [inhibitor, single point]",–
CCOc1ccc(-c2cc(C(=O)N3CCN(C)CC3)c3ccccc3n2)cc1,"inconclusive [inhibitor, partial curve]",–
COc1cccc(C2C=C(c3ccc(OC)cc3OC)Nc3nnnn32)c1 (centres undefined),"inconclusive [inhibitor, single point]",–
COC(=O)c1ccc(CSc2nc3ccccc3c(=O)n2-c2ccccc2)o1,active: 25.1 µM,–
COC(=O)CC1COc2ccccc2N1C(=O)c1ccc(C(C)(C)C)cc1 (centres undefined),"inconclusive [inhibitor, single point]",–
Cc1cc(C)n(C(=O)c2ccc(C)o2)n1,"inconclusive [inhibitor, single point]",–
O=C(O)CCCN1CCCCC1,–,inactive: -5.83% [at 13.5 µM]
O=c1[nH]c2cc3c(cc2cc1C(c1nnnn1CC1CCCO1)N1CCCCCC1)OCCO3 (centres undefined),"inconclusive [inhibitor, partial curve]",–
Cc1noc(C)c1C(=O)Nc1ccccc1-c1ccccc1,"inconclusive [inhibitor, single point]",–
N#Cc1c(NC(=O)CSc2ccccn2)oc(-c2ccccc2)c1-c1ccccc1,"inconclusive [inhibitor, partial curve]",–
Cc1ccccc1OCC(O)Cn1c(NCc2ccco2)nc2c1c(=O)[nH]c(=O)n2C (centres undefined),"inconclusive [inhibitor, single point]",–
CC1(C)Cc2cccc(C(=O)NCc3ccco3)c2O1,"inconclusive [inhibitor, single point]",–
CC1CCN(C(=O)Cn2cc(C#N)c3ccccc32)CC1,"inconclusive [inhibitor, single point]",–
Cn1nc(C(F)(F)F)c(-c2ccccc2)c1NC(=O)CCC(=O)O,inactive,–
C=CCNC(=S)NNC(=O)c1ccccc1,inactive,–
CCCC[C@H]1C(=O)N(c2ccccc2)N(c2ccc(O)cc2)C1=O,"inconclusive [inhibitor, single point]",–
COc1ccc(NC(=O)/C=C/C(=O)O)c([N+](=O)[O-])c1,active: 18.9 µM,–

SMILES,Potency,"activity, negative = inhibition"
COc1ccc(-n2c3c(cc(C(=O)N4CCC(C)CC4)c2=O)C(=O)CC(C)(C)C3)cc1,"inconclusive [inhibitor, single point]",–
COc1cc(/C=N\n2nnnc2N)ccc1OCc1ccc(F)cc1,"inconclusive [inhibitor, partial curve]",–
CCN(C(=O)COC(=O)/C=C/c1cnc2ccccc2n1)c1ccccc1,"inconclusive [inhibitor, single point]",–
COc1ccccc1OCc1nc(C#N)c(N2CCCC2)o1,"inconclusive [inhibitor, partial curve]",–
O=c1cc(-c2ccccc2)n(S(=O)(=O)c2ccccc2)o1,active: 25.1 µM,–
O=C(NCCc1ccc(Cl)cc1)C1CCN(S(=O)(=O)c2cccs2)CC1,"inconclusive [inhibitor, full curve]",–
N=c1c(C(=O)NCc2ccco2)cc2c(=O)n3ccccc3nc2n1CCc1ccccc1,"inconclusive [inhibitor, partial curve]",–
CCn1ccnc1C(O)c1cccc(OC)c1OC (centres undefined),"inconclusive [inhibitor, single point]",–
CCOc1ccc(Cc2nnc(SCC(=O)c3ccc(OC)cc3)o2)cc1,"inconclusive [inhibitor, partial curve]",–
C=CCC(C)(Nc1ccccc1)C(=O)OCC (centres undefined),inactive,–
Cc1cc(C)c2nc(NC(=O)C3CCCO3)sc2c1 (centres undefined),"inconclusive [inhibitor, partial curve]",–
COc1ccc(OC)c(N(CC(=O)NC2CC2)S(=O)(=O)c2ccc(C)cc2)c1,"inconclusive [inhibitor, single point]",–
Cc1nonc1C1CCCN1Cc1cn[nH]c1-c1ccc(-c2ccccc2)cc1 (centres undefined),active: 7.08 µM,–
CC(/C=N/NC(=O)c1cc(-c2ccc3ccccc3c2)n[nH]1)=C\c1ccco1,inactive,–
O=C(c1ccncc1)N1CCC[C@@]2(CCN(c3ccccn3)C2)C1,inactive,–
Cc1ccccc1N1C(=O)[C@@H]2Cc3ccccc3CN2C1=O,"inconclusive [inhibitor, partial curve]",–
O=C(Nc1cccnc1)c1ccc(NS(=O)(=O)c2cccc([N+](=O)[O-])c2)cc1,"inconclusive [inhibitor, single point]",–
CCc1nc2ccccc2n(CC)c1=O,"inconclusive [inhibitor, partial curve]",–
O=C1CN(C(=O)/C=C/c2ccccc2F)c2ccccc2N1,"inconclusive [inhibitor, partial curve]",–
COc1ccc2c(c1)CCc1c(C(=O)N(C)c3ccccc3)noc1-2,"inconclusive [inhibitor, partial curve]",–
COCCn1cc(C(=O)N2CCCC(C)C2)c2c3ccccc3n(C)c2c1=O (centres undefined),"inconclusive [inhibitor, single point]",–
O=C(NP(=O)(N1CCCC1)N1CCCC1)C1=C(N2CCOCC2)/C(=C/c2cccc([N+](=O)[O-])c2)CC1,active: 10 µM,–
Cc1oc(-c2ccccc2)[n+]([O-])c1C,inactive,–
COc1ccc(NC(=S)NC2CCCCC2)cn1,inactive,–
O=C(c1cccc(-c2ccc(O)cc2)c1)N1CCOCC1,inactive,–

SMILES,Potency,"activity, negative = inhibition"
COc1ccc2c(c1OC)C(=O)N(c1ccc(C)c(C)c1)C2=O,"inconclusive [inhibitor, full curve]",–
c1ccc(-c2nnc(SCc3nc4ccccc4[nH]3)n2Cc2ccco2)cc1,"inconclusive [inhibitor, single point]",–
Cc1cc(/C([O-])=C(/C(=S)Nc2ccccc2)[n+]2ccccc2)c(C)n1-c1ccccc1,"inconclusive [inhibitor, single point]",–
O=C(CCC(=O)OCC(=O)c1cccc([N+](=O)[O-])c1)Nc1ccccc1Cl,inactive,–
OCCN1CCN(C(=S)c2ccc(Cl)cc2)CC1,active: 15.8 µM,–
COC(=O)c1sccc1NC(=O)CN(C)NS(=O)(=O)c1ccc(F)cc1,active: 1 µM,–
CCOC(=O)c1sc(Nc2ccccc2)nc1C,inactive,–
CCOC(=O)N1CCN(C(=O)CSc2nnc(-c3cc(OC)ccc3OC)o2)CC1,"inconclusive [inhibitor, partial curve]",–
O=C(N/N=C/c1ccc([N+](=O)[O-])cc1)C(=O)N1CCCC1,inactive,–
CC(C)(C)C1CCc2c(sc(NC(=O)C3CC=CCC3C(=O)O)c2C#N)C1 (centres undefined),active: 7.08 µM,–
CCCN1C(=O)c2ccccc2NC1c1ccc(OC)cc1OC (centres undefined),"inconclusive [inhibitor, partial curve]",–
Cc1ccc(NS(=O)(=O)c2cc(C(=O)N3CCOCC3)ccc2C)cc1,inactive,–
CNC(=S)NNC(=O)c1ccccc1Cl,"inconclusive [inhibitor, single point]",–
COC(=O)/C(=C\C(=O)c1ccccc1)Nc1cccc(C(F)(F)F)c1,"inconclusive [inhibitor, single point]",–
COc1cc(NC(=S)N2CCCCC2C)c(OC)cc1Cl (centres undefined),inactive,–
COc1ccc(C2C=C(C34CC5CC(CC(C5)C3)C4)NC(=S)N2)cc1 (centres undefined),active: 3.98 µM,–
CN(C)CCC(=O)c1ccc2c(c1)OCO2,active: 0.0224 µM,–
Cc1c(Cl)sn(-c2ccc(Cl)cc2)c1=O,active: 1.78 µM,–
O=C(NC(=S)N1CCN(C/C=C/c2ccccc2)CC1)c1ccc(F)cc1,inactive,–
Cc1coc2cc3oc(=O)c4c(c3cc12)CCC4,"inconclusive [inhibitor, partial curve]",–
Cc1ccc(-n2nc(C)c(/C=N/n3c(C)n[nH]c3=S)c2Cl)cc1,"inconclusive [inhibitor, partial curve]",–
CCOc1ccc(NC(=O)C(C)O)c(NS(=O)(=O)c2ccc(CCNC(C)=O)cc2)c1 (centres undefined),"inconclusive [inhibitor, single point]",–
Cc1cc(NC(=O)COC(=O)COc2ccc3c4c(c(=O)oc3c2)CCC4)no1,"inconclusive [inhibitor, partial curve]",–
CS(=O)(=O)N1CCN(C2Cc3ccccc3C2)CC1,"inconclusive [inhibitor, single point]",–
